This passage reports result_ITMP results from paper PMC13083723 (Patterns, 2026).

Structures are written as SMILES. Among all 5,400 compounds or so, about 190 (3.5%) showed an effect of 50% or more. Some of the results follow.

For this assay, the system named is Vero-E6. Put plainly: primary screen, phospholipidosis by LipidTOX staining; higher = more effect of the substance. To be noted: 10 µM. An outline of the steps: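 Single-concentration screen at 10 μM, with DMSO 0.1 v/v % and amiodarone 10 μM as controls. Read-out is LipidTOX Red phospholipid staining, which tolerates aldehyde fixation, in Vero-E6 cells.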
Consider `CCn1cc(-c2ccnc3[nH]c(-c4cccc(CN(C)C)c4)cc23)c(-c2ccc(NC(=O)N(C)C)cc2)n1`, for which the result_ITMP is 27.7%.
Under `CCCCCCN(CCCCCC)C(=O)Cc1c(-c2ccc(F)cc2)[nH]c2ccccc12` stands -8.09%.
Then `CCN(CC)CCNC(=O)c1ccc(NC(C)=O)cc1`, with -8.7%.
Then `N[C@@H]1CN(c2c(F)cc3c(=O)c(C(=O)O)cn([C@@H]4C[C@@H]4F)c3c2Cl)CC12CC2`, with 2.48%; and `CC(=O)NNC(=O)N1Cc2ccccc2Oc2ccc(Cl)cc21`, with -0.36%.
Turning to `O=C([O-])[C@H](O)[C@@H](O)[C@H](O)[C@H](O)CO`, the result_ITMP is -4.67%.
Then `CNC[C@H](O)c1cccc(O)c1`, with -3.1%; and `O=S(=O)([O-])CCSSCCS(=O)(=O)[O-]`, with -11.7%.
Then `O=C1Nc2cc(Cl)c(Cl)cc2N2CCNCC12` (stereo not shown), with 3.03%; and `C[C@@H]1O[C@@H](O[C@@H]2[C@@H](O)[C@H](OCCc3ccc(O)c(O)c3)O[C@H](CO)[C@H]2OC(=O)/C=C/c2ccc(O)c(O)c2)[C@H](O)[C@H](O)[C@H]1O`, with 0.72%; and `CC(C)C1=C2[C@H]3CC[C@@H]4[C@@]5(C)CC[C@H](OC(=O)CC(C)(C)C(=O)O)C(C)(C)[C@@H]5CC[C@@]4(C)[C@]3(C)CC[C@@]2([C@@H](O)CN(CCN(C)C)Cc2ccc(Cl)cc2)CC1=O`, with 0.12%.
Then `CCOC(=O)[C@H](CCc1ccccc1)N[C@@H](C)C(=O)N1[C@H](C(=O)O)C[C@H]2CCCC[C@@H]21`, with -5.12%; and `O=C(O[C@@H]1Cc2c(O)cc(O)cc2O[C@@H]1c1cc(O)c(O)c(O)c1)c1cc(O)c(O)c(O)c1`, with -2.35%.
With `CC(C)C[C@H](NC(=O)CNC(=O)c1cc(Cl)ccc1Cl)B(O)O`, the result_ITMP is listed as 2.32%.
Then `CC(C)(C)NCC(O)COc1cccc2[nH]c(C#N)cc12` (stereo not shown), with -4.94%.
For the compound `CCN(CC)CCN(Cc1ccc(-c2ccc(C(F)(F)F)cc2)cc1)C(=O)Cn1c(SCc2ccc(F)cc2)nc(=O)c2c1CCC2`, the result_ITMP came out at 29.1%.
Then `N#C[C@@H]1CCCN1C(=O)CNC12CC3CC(CC(O)(C3)C1)C2`, with -5.49%; and `CN(C)CCCSc1ccccc1NC(=O)/C=C/c1ccccc1`, with 8.24%; and `CN1C(=O)N(c2cc(Cl)cc(Cl)c2)C(=O)[C@]12CN(c1ccc(C(=O)O)cn1)C[C@H]2c1ccc(C#N)cc1`, with -0.07%.
Under `Cc1nc2cnc3ccc(C#Cc4cccnc4)cc3c2n1-c1ccc(C(C)(C)C#N)cc1` stands -2.17%; under `C[C@H]1[C@H](C)CC[C@]2(C(=O)O)CC[C@]3(C)C(=CC[C@@H]4[C@@]5(C)CC[C@H](O)C(C)(C)[C@@H]5CC[C@]43C)[C@H]12`, -0.84%.
Then `Cc1cc(-c2nc(-c3ccc(OC(F)(F)F)cc3)no2)nn1Cc1ccnc(N2CCN(C3CC3)CC2)c1`, with -1.58%; and `COC(=O)[C@H]1[C@H]2C[C@@H]3c4[nH]c5cc(OC)ccc5c4CCN3C[C@H]2C[C@@H](OC(=O)c2cc(OC)c(OC)c(OC)c2)[C@@H]1OC`, with 43.5%.
On to `COc1cc2c(cc1OC)-c1cc3ccc(OC)c(OC)c3c[n+]1CC2`, for which the result_ITMP was -5.54%.
Then `CC(C)C[C@H](NC(=O)[C@@H](O)[C@H](N)Cc1ccccc1)C(=O)O`, with -1.61%.
Then `COc1cc([C@@H]2c3cc4c(cc3[C@H](O)[C@H]3COC(=O)[C@H]23)OCO4)cc(OC)c1OC`, with 14.3%; and `C=CCc1ccc(O)c(-c2ccc(O)c(CC=C)c2)c1`, with -3.16%; and `O=P(O)(O)C(O)(Cc1cnc2ccccn12)P(=O)(O)O`, with 6.24%.
Under `O=C([O-])CCCO` stands -1.27%; under `CCOC(=O)Nc1ccc2c(c1)N(C(=O)CCN1CCOCC1)c1ccccc1S2`, -8.3%.
Turning to `O=c1c(-c2ccc(O)cc2)coc2cc(O)cc(O)c12`, the result_ITMP is on record as -2.31%.
Then `OCc1ccc(-c2ccc(-c3ccc(CO)s3)o2)s1`, with -3.85%; and `Cc1cn(C2CC(N=[N+]=[N-])C(CO)O2)c(=O)[nH]c1=O` (stereo not shown), with -4.18%; and `N[C@H](Cc1ccccc1)C(=O)O`, with 3.69%.
With `O=C(O)c1ccc(Nc2ncc3c(n2)-c2ccc(Cl)cc2C(c2c(F)cccc2F)=NC3)cc1`, the result_ITMP is -2.95%.
Turning to `Nc1c2c(nc3c1CCC3)CCCC2`, the result_ITMP is listed as -8.81%.
Under `C[C@H](NC(=O)Cc1cc(F)cc(F)c1)C(=O)N[C@@H]1C(=O)N(C)c2ccccc2-c2ccccc21` stands -3.47%.
Then `O=C(NOCCO)c1cc(CN2OCCCC2=O)c(F)c(F)c1Nc1ccc(I)cc1F`, with -1.3%.
Then `CC(N)Cc1cccc(O)c1` (stereo not shown), with -6.46%; and `O=[N+]([O-])c1ccc([As](=O)(O)O)cc1`, with -5.95%.
With `O=C(Nc1cc(Cl)cc(Cl)c1O)c1c(O)c(Cl)cc(Cl)c1Cl`, the result_ITMP is reported as -8.29%.
Then `Cc1nn(C)c2nc(NNC(=O)Nc3cc(Cl)nc(Cl)c3)cc(C(C)C)c12`, with 1.13%; and `C[C@@H](c1ncncc1F)[C@](O)(Cn1cncn1)c1ccc(F)cc1F`, with 1.21%.
Then `CN(C)NC(=O)CCC(=O)O`, with -1.95%; and `O=c1[nH]c(=O)n([C@H]2CCCO2)cc1F`, with -4.71%.
Under `CN[C@@H](C)[C@H]1[C@H](O)C[C@@]2(C)[C@@H]3CC[C@H]4C(C)(C)[C@@H](NC)CC[C@@]45C[C@@]35CC[C@]12C` stands 8.26%; under `CN1CCN(CCCN2c3ccccc3Sc3ccc(S(=O)(=O)N(C)C)cc32)CC1`, 50.3%; under `CN(C)CCCNC(=O)c1ccc(-c2cc(O)c3ncccc3c2)cc1`, -0.58%.
Turning to `C[C@@H]1CC(=O)NN=C1c1ccc(NN=C(C#N)C#N)cc1`, the result_ITMP is -4.23%.
Under `COc1cccc(OC)c1-c1ccc(C[C@H](NC(=O)c2c(Cl)cccc2Cl)C(=O)O)cc1` stands -1.59%; under `COc1ccc(-c2nc(C(=O)N3CCN(C)CC3)sc2-c2ccc(OC)cc2)cc1`, 2.32%.
Take `CCN(C(C)=O)c1cccc(-c2ccnc3c(C#N)cnn23)c1`: the result_ITMP was -1.2%.
As for `CC(=O)Oc1cc(C(F)(F)F)ccc1C(=O)O`, the result_ITMP is given as -2.73%.
As for `N=c1ccn2c(n1)O[C@H]1[C@H](O)[C@@H](CO)O[C@H]12`, the result_ITMP turned out to be 0.88%.
Under `CC(=O)Oc1c(C)cccc1C(=O)O` stands 0.62%; under `CCCCCCCC/C=C\CCCCCCCC(=O)NCc1ccc(O)c(OC)c1`, -2.16%; under `C[C@H](CCC(=O)O)[C@H]1CC[C@H]2[C@@H]3[C@H](O)C[C@@H]4C[C@H](O)CC[C@]4(C)[C@H]3CC[C@]12C`, -4.84%.
Turning to `O=c1[nH]cc(F)c(=O)[nH]1`, the result_ITMP is -3.49%.
Under `O=C1NCCNC1c1cccs1` (stereo not shown) stands -5.38%; under `NCCc1c[nH]c2ccc(O)cc12`, -2.96%; under `O=c1ncn2nc(Sc3ccc(F)cc3F)ccc2c1-c1c(Cl)cccc1Cl`, -4.94%.
Under `Cc1cncc(CN2CCC(=C3c4ccc(Cl)cc4CCc4cccnc43)CC2)c1` stands 3.19%; under `CS(=O)(=O)c1ccc([C@@H](O)[C@@H](CO)NC(=O)C(Cl)Cl)cc1`, -7.96%.
Under `CO/N=C(\C(=O)N[C@@H]1C(=O)N2C(C(=O)[O-])=C(C[n+]3ccn4ncccc43)CS[C@H]12)c1nsc(N)n1` stands -0.4%.
As to `NS(=O)(=O)c1cc2c(cc1Cl)N=C(CSCc1ccccc1)NS2(=O)=O`, the result_ITMP is given as -4.59%.
Under `CCCCC(=O)OCC(=O)[C@]1(O)Cc2c(O)c3c(c(O)c2[C@@H](O[C@H]2C[C@H](NC(=O)C(F)(F)F)[C@H](O)[C@H](C)O2)C1)C(=O)c1c(OC)cccc1C3=O` stands 1.73%; under `CCC(COC(=O)c1cc(OC)c(OC)c(OC)c1)(c1ccccc1)N(C)C` (stereo not shown), 3.57%.
Then `Clc1ccc2c(c1)N=C(N1CCNCC1)c1ccccc1N2`, with 77.7%; and `CCOc1cc2ncc(C#N)c(Nc3ccc(OCc4cccc(F)c4)c(Cl)c3)c2cc1NC(=O)/C=C/CN(C)C`, with -0.47%; and `CC(=O)OC/C=C(C)/C=C/C=C(C)/C=C/C1=C(C)CCCC1(C)C`, with -3.31%.
Under `O=C(Cc1ccc(-c2ccccc2)cc1)Nc1ccccn1` stands -3.31%; under `O=C1NC(=O)/C(=C/c2ccc(-c3ccc(F)cc3O)o2)S1`, -1.97%; under `CC(C)CCN1c2nc(Nc3cc(F)c(O)c(F)c3)ncc2N(C)C(=O)C1C` (stereo not shown), 17.5%.
For `O=C(NC1Cc2ccccc2N(C[C@@H](O)CO)C1=O)c1cc2cc(Cl)sc2[nH]1` (stereo partly shown), the result_ITMP is -3.43%.
Under `CC[C@@H](c1ccc(F)c(F)c1)n1c(C(=O)OC)c(-c2ccno2)[nH]c1=S` stands -7.81%; under `Cc1cnc(Nc2ccc(N3CCN(C)CC3)cc2)nc1Nc1cccc(S(=O)(=O)NC(C)(C)C)c1`, 21.8%; under `CCC[C@H](N[C@@H](C)C(=O)N1[C@H](C(=O)O)C[C@@H]2CCCC[C@@H]21)C(=O)O`, -15.7%.
Under `CCC(c1ccc(O)cc1)C(CC)c1ccc(O)cc1` (stereo not shown) stands -2.92%.
Then `NC1(c2ccc(-c3nc4ccn5c(=O)[nH]nc5c4cc3-c3ccccc3)cc2)CCC1`, with 87.1%.
Turning to `CC(=O)O[C@]1(C(C)=O)CC[C@H]2[C@@H]3C=C(C)C4=CC(=O)CC[C@@H]4[C@H]3CC[C@@]21C`, the result_ITMP was -8.69%.
Then `COc1ccc(CCN(C)CCc2ccc(OC)c(OC)c2)cc1OC`, with -1.15%; and `NC(=O)c1noc([C@H](CCCC2CCCCC2)CC(=O)NO)n1`, with -5.23%; and `CC1(CN2CCC(n3c(=O)[nH]c4ccccc43)CC2)OCc2ccccc2-n2cccc21` (stereo not shown), with -1.56%.
Then `CC(C)[C@@H]1CC[C@@H](C)C[C@H]1O`, with -7.25%; and `CC[C@H](C)n1cc(C)c2c(C(=O)NCc3c(C)cc(C)[nH]c3=O)cc(-c3ccc(N4CCNCC4)nc3)cc21`, with -1.29%.
